Laboratory results from US20260216242A1 (ALMAC DISCOVERY, published 2026).

T1: human ALPL on CHO cells (human, UniProt P05186 18-501)
T1 construct: whole, on cells; also called CHO-ALPL
T1 sequence (looked up): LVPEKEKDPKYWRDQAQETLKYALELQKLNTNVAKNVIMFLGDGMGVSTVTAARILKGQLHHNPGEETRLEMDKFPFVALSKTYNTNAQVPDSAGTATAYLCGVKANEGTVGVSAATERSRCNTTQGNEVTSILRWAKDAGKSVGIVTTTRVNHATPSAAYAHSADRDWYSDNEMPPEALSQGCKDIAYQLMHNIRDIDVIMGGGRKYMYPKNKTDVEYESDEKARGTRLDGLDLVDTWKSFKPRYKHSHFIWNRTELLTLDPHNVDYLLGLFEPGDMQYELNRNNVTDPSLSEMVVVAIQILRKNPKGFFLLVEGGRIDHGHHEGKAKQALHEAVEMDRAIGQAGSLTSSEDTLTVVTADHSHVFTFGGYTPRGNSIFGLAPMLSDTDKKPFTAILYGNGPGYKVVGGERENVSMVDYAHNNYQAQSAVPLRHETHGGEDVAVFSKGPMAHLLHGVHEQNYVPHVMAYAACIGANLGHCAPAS

T2: Rhesus monkey ALPP (leucine zipper) (rhesus monkey)
T2 construct: Whole entry: cysteine-stabilised leucine zipper fusion; also called rmALPP; NCBI #XP_028687061
T2 chain: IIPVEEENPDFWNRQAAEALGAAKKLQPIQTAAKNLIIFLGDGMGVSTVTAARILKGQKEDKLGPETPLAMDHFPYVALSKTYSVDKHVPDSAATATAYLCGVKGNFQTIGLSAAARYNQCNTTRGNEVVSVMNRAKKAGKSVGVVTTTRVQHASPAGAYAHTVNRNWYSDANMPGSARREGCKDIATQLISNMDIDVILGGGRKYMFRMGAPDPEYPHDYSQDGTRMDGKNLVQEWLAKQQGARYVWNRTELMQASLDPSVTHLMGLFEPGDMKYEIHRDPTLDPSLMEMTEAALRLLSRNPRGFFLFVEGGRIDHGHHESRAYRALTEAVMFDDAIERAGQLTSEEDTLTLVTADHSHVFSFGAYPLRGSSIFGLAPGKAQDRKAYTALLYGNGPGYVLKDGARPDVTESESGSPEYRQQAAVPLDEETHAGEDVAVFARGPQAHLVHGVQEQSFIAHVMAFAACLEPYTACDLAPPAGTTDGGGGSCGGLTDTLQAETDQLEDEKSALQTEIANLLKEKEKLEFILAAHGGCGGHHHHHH

T3: Human ALPP (leucine zipper) (human)
T3 construct: Whole entry: ALPP fused with a cysteine stabilised leucine zipper and His tag; also called hALPP
T3 chain: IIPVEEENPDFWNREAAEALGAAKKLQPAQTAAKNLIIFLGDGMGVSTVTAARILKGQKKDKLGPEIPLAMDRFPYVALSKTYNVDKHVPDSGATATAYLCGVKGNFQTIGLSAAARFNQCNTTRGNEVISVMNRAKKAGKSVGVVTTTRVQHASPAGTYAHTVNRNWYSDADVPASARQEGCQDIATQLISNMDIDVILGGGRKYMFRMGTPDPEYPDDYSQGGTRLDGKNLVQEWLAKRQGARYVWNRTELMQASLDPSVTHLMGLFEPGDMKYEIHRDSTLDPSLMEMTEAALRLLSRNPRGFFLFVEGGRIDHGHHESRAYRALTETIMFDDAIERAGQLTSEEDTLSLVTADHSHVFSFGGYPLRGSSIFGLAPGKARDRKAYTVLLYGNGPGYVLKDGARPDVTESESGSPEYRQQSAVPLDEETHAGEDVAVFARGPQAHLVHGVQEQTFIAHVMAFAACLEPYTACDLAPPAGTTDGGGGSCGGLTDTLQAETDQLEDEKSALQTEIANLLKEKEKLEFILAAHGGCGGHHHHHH

T4: Human ALPPL2 (leucine zipper) (human)
T4 construct: Whole entry: fused with a cysteine stabilised leucine zipper and His tag; also called hALPPL2
T4 chain: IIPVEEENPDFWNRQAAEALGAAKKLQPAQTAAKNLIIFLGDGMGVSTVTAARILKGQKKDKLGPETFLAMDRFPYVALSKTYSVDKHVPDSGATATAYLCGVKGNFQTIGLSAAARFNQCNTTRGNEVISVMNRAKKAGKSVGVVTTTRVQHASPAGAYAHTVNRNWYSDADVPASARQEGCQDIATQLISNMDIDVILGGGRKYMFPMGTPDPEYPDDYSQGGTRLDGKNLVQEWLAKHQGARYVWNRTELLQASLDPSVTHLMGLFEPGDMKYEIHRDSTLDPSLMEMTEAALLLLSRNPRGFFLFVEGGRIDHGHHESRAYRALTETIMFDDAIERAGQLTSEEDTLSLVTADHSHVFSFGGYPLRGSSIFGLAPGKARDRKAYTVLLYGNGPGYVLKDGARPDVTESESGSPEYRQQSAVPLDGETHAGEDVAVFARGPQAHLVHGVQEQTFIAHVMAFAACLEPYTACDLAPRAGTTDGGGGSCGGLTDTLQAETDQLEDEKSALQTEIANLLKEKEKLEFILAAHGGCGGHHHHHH

T5: Human ALPL (leucine zipper) (human)
T5 construct: Whole entry: fused with a cysteine stabilised leucine zipper and His tag; also called hALPL
T5 chain: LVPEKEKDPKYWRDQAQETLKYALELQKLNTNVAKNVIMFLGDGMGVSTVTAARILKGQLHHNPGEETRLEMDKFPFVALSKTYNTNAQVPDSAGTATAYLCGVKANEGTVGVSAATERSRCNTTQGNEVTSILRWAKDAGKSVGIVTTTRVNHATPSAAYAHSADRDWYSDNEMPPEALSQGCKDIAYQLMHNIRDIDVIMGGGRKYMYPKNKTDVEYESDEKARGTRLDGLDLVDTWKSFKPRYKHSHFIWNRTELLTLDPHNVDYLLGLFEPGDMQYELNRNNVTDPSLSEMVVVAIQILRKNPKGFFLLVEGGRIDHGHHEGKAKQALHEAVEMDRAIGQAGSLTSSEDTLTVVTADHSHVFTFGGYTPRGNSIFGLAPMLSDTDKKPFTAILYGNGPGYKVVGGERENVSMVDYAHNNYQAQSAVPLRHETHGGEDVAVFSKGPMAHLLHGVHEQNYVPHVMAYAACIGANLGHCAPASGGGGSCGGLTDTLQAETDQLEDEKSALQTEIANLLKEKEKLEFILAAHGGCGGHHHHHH

T6: ALPI His homodimer (human, UniProt P09923 20-503)
T6 construct: Whole entry with His tag; used in ELISA and BLI; also called hALPI
T6 sequence: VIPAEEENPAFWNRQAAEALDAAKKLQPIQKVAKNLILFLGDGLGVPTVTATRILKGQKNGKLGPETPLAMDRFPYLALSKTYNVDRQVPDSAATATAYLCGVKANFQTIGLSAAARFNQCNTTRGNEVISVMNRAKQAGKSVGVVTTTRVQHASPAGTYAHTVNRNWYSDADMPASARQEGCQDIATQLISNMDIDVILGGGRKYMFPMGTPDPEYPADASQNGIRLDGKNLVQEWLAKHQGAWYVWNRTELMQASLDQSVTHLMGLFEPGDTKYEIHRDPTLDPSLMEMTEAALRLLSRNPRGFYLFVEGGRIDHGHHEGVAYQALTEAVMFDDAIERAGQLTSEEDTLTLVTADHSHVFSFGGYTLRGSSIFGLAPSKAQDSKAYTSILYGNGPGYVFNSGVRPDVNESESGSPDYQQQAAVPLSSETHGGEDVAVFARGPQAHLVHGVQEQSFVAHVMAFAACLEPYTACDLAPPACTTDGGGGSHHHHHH


Tests used:
[1] = target: T7, human ALPPL2 on CHO cells (human, UniProt P10696 20-503); experiment: flow cytometry, CHO cells, KDapp
T7 construct: whole, on cells; also called CHO-ALPPL2
Description: (§1) Cell surface binding of test agents to hALPP isoforms was characterized in four CHO-ALPP isoform transfectant cell lines (CHO-ALPP, CHO-ALPPL2, CHO-ALPI and CHO-ALPL) and the resulting KDapp values determined. Adherent cells were detached from tissue culture flasks by incubating with 0.1% EDTA/PBS solution at 37° C. for ~10 minutes or until cells detached easily. Cells were re-suspended in ice-cold PBS/2% FCS in 15 ml tubes and centrifuged at 1700 rpm for 5 mins at 4° C. Supernatant was removed and the cell pellet re-suspended in PBS/2% FCS. […] Cells were incubated with 100 μl of test agents at a range of concentrations, plus controls for 1 hr on ice. The sample plate was centrifuged at 1700 rpm for 5 mins at 4° C. The supernatant was removed, and a wash performed by re-suspending the cell pellets in 0.25 mL of ice-cold PBS/2% FCS using a multichannel pipette. Samples were again centrifuged at 1700 rpm for 5 min at 4° C. Supernatant was removed and two further washes performed as described. After the final wash and centrifugation step, excess liquid was removed by blotting the plate on tissue paper. Binding of VHH-hFc agents was determined by adding 100 μl of Fitc-anti-human Ab (ThermoFisher) and incubating for 30 mins on ice in the dark. Wash steps were performed as described previously. All cell pellets were finally re-suspended in 0.28 ml of ice-cold PBS/2% FCS and left on ice in the dark prior to analysis on a Merck-Millipore Guava EasyCyte HT or Thermo Fisher Attune N×T flow cytometer.

[2] = target: T8, human ALPP on CHO cells (human, UniProt P05187 23-506); experiment: flow cytometry, CHO cells, KDapp
T8 construct: whole, on cells; also called CHO-ALPP
Description: as §1

[3] = target: T1, human ALPL on CHO cells; experiment: flow cytometry, CHO cells stably expressing human ALPL; VHH-hFc detected with FITC anti-human Ab
Description: VHH-hFc proteins were assessed for human ALPP, ALPPL2, ALPI and ALPL cell-surface binding by flow cytometry. Binders were screened on CHO cells stably expressing human ALPP, ALPPL2, ALPI or ALPL.
as §1

[4] = target: T2, Rhesus monkey ALPP (leucine zipper); experiment: BLI, antigen immobilised, KD apparent
Description: (§2) Binding kinetics were determined using the Biolayer Interferometry (BLI) Octet K2 or R4 system (Sartorius). […] For KD apparent measurements, the ALPP proteins were immobilised in sodium acetate pH5 buffer to AR2G sensors using amine coupling. To measure 1:1 interactions, AHC biosensors were used to immobilise Fc-fused proteins. All assays were conducted in HBS-EP with a plate temperature of 25° C. Ka (M⁻¹s⁻¹), Kd (s⁻¹) and KD (nM) values were determined using Octet Data Analysis High Throughput software (Sartorius) for Biolayer Interferometry.
To assess cross-species reactivity of the ALPP/ALPPL2 targeting VHH-hFc fusions, BLI was conducted using mouse ALPPL2 (NCBI #NP_031459), rhesus monkey ALPP (NCBI #XP_028687061) and cynomolgus monkey ALPP (NCBI #XP_045223825). […] BLI was conducted as described above.

[5] = target: T3, Human ALPP (leucine zipper); experiment: BLI, antigen immobilised, KD apparent
Description: as §2

[6] = target: T4, Human ALPPL2 (leucine zipper); experiment: BLI, antigen immobilised, KD apparent
Description: as §2

[7] = target: T5, Human ALPL (leucine zipper); experiment: BLI, antigen immobilised
Description: as §2

[8] = target: T6, ALPI His homodimer; experiment: BLI, antigen immobilised
Description: as §2

Row | Binder | Kd [1] | Kd [2] | binding result [3] | Kd [4] | koff [4] | kon [4] | Kd [5] | koff [5] | kon [5] | Kd [6] | koff [6] | kon [6] | binding result [7] | binding result [8]
1 | D10 (G4S)1 hFc (S239C) (Fc fusion, Short linker; also called D10-hFc (S239C) [G4S]1; #373) QVQLVESGGGLVQPGGSLRLSCAASGSIFSVNTMGWYRQAPGKQRDLVAVATSGGTIHYADSVKGRFTISRDNAKNTVYLQMNSLKPEDTAVYYCNLVVPYGMIAGDHDYWGQGTKVTVSSGGGGS[human IgG1 Fc with changes not spelt out] | 6.2 nM | 2.7 nM | no binding (tested: 350 nM) |  |  |  |  |  |  |  |  |  |  | 
2 | A05-hFc (S239C) (Fc fusion, VHH-[G4S]3-human IgG1 Fc S239C; built from parts; also called #433) QVQLVESGGGLVQAGASLTLSCAASGFTFNTRSIVWFRQAPGKEREAVSCISKVAGSTYYGDSVQGRFSSSTDNAKNTVSLQMNSLKPEDTAVYTCAASFAPNCYGWSVAANMEYWGEGTMVTVSSGGGGSGGGGSGGGGS[human IgG1 Fc with changes not spelt out] |  |  |  | < 0.01 nM | < 1e-07 s⁻¹ | 562000 M⁻¹ s⁻¹ | < 0.01 nM | < 1e-07 s⁻¹ | 304000 M⁻¹ s⁻¹ | < 0.01 nM | < 1e-07 s⁻¹ | 526000 M⁻¹ s⁻¹ | no binding | no binding
